This note sets out measurements from publication PMC12136788.

Some of the results follow.

First the molecules themselves.
T1: UNK ZnF1-3 (human, UniProt Q9C0B0 31-174)
T1 sequence: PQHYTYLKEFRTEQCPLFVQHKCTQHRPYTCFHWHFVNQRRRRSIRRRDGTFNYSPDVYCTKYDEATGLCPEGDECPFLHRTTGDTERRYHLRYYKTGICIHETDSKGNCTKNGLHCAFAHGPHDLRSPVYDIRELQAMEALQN

B1: chr6:41757443:41757444:+_ENSG00000214736_ENST00000398881|hu_hu|FALSE|FALSE (ssRNA)
RNA: GGGAGUUCUACAGUCCGACGAUCAGCCUGUCUGCUGACCAGAGAAUGGAAUUCUGCGUGGACUCAAGGAACAAAAGGAAACUAGGCAGGGAAGGGGAAGAAAAGUGCCCAUCUGAAUCAAACUUCAGCUGCCAUCAGGGCACACAACAGAGGAUUGAGCAUCA
B2: chr10:34018390:34018391:+_ENSMUSG00000039485_ENSMUST00000047935|mus_mus|FALSE|FALSE (ssRNA)
RNA: GGGAGUUCUACAGUCCGACGAUCGCCCAUCAGAUAGUAUUGUAGGGGAUUGGACCACAGCUCCCCUUUGAUAAUUUCAGCUAUUCUGUCGAAUUCUAGGAGGCUGUGGUCUGAGAACCAGUUGAAGAAACUGGGAAUCGUGUUCAACAGAGGAUUGAGCAUCA
B3: chr7:125832625:125832626:-_ENSMUSG00000033917_ENSMUST00000038791|mus_hu|FALSE|FALSE (ssRNA)
RNA: GGGAGUUCUACAGUCCGACGAUCAAGAUGGGAUUCGUAGUAACUCUUUUCAUCAAAGGUAUUAACAGUCCAACCAACAACCUGGAUUCCUUUAGCUGACCACUUCUUCAAGUAGGCCGGGGAUACAAAAUCCUUUUGCAUGAGCAACAGAGGAUUGAGCAUCA
B4: chr19:32867047:32867048:+_ENSMUSG00000013663_ENSMUST00000013807|mus_mus|motif|central (ssRNA)
RNA: GGGAGUUCUACAGUCCGACGAUCAGCACAUAGAUUGUAUAUCUUGUAAUGGUUUUUAUGCUUUGAAUCCAAAAACCUUACGGCAUCAUCAAUAUUGUUCCUGUAUACACCUUCAAGUCUUUCUGCAGGAAAUCCCAUAGCAAUCAACAGAGGAUUGAGCAUCA
B5: chr6:13820011:13820012:-_ENSMUSG00000052419_ENSMUST00000155856|mus_hu|motif|central (ssRNA)
RNA: GGGAGUUCUACAGUCCGACGAUCUAAAUGUUUUUUCCCUAGAGAUAAAAGUUUUCCUUUUUGCCUGACUCUCUGAUAUCGGAAUAUAAUAUUAACUUGGGAGACAACAAAACAAAAAUCUAAUUUAAAAGACUCCUCAACGAUCAACAGAGGAUUGAGCAUCA
B6: chr12:39763582:39763583:-_ENSG00000139116_ENST00000544797|hu_mus|hu_hu_hu_mus_False|68_108 (ssRNA)
RNA: GGGAGUUCUACAGUCCGACGAUCCUCUAAGAAUUGGGCAUUCACUUUGAAUUCAGGAGGGGGCAGCCCAUUUUUAAUCGCUGAGGUCUUUUUCUCAUCAAUACUCUUGAACAGGUGUCUAACAGCACGAGAGAUGAUGCCCUGCAACAGAGGAUUGAGCAUCA

The experiment has as its target T1, UNK ZnF1-3. The experiment is described as follows: nsRBNS (natural sequence RNA bind-n-seq); RBNS binding buffer (assumed for nsRBNS): 25 mM Tris pH 7.5, 150 mM KCl, 3 mM MgCl2, 0.01% Triton X-100, 500 ug/ml BSA, 20 U/ml SUPERase-In, 4 C; UNK is unkempt and MSI1 is Musashi-1; names of the RNAs are library labels; protein concentration not given here; high values mean tight binding.
In turn, B1 returned a binding signal of 1.96 enrichment R.

As to B2, the binding signal amounted to 0.771 enrichment R.

Regarding B3, the binding signal came out at 0.714 enrichment R.

For B4, the binding signal amounted to 1.12 enrichment R.

B5 had a binding signal of 1.49 enrichment R.

B6: the binding signal was determined as 1.64 enrichment R.
